Publication PMC6919601, “Identification of Plasmodium dipeptidyl aminopeptidase allosteric inhibitors by high throughput screening” (PLoS ONE, 2019)
Screen size: about 110,000 compounds; about 230 (0.21%) showed an effect of 50% or more. This is one part of the list.

molecular target: DPAP1 (Plasmodium falciparum, UniProt Q8IIJ9); assay: primary screen, percent inhibition; read by cleavage of a fluorogenic dipeptide substrate; higher = more effect of the substance; design: species or system P. falciparum D10 trophozoite lysates; single well
Sequence (Q8IIJ9 whole entry, looked up): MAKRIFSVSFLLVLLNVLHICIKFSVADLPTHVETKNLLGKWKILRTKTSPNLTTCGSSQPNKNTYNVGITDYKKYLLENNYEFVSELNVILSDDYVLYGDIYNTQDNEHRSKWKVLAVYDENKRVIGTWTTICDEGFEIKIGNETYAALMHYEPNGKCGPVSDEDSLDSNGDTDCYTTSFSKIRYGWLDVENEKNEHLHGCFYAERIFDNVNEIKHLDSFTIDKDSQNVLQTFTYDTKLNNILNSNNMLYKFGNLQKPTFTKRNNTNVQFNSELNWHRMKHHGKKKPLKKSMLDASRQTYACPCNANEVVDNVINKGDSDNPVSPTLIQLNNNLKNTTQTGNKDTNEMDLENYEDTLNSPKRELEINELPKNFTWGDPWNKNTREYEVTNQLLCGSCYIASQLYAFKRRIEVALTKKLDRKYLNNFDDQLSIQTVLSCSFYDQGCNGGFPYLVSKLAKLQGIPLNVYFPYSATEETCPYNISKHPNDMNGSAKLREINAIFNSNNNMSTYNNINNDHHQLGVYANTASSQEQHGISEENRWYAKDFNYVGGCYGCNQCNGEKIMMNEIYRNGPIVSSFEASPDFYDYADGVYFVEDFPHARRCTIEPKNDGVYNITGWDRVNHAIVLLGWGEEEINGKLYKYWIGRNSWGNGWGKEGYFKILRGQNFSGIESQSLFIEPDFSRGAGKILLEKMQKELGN
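Further: 30 min substrate incubation versus DMSO and 10 µM JCP410 controls.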

Row | SMILES | % Inhibition @ 10 uM [%]
1 | COc1ccc(CNC(=O)C2CCCN(S(=O)(=O)c3c(C)noc3/C=C/N(C)C)C2)cc1 (stereo not shown) | -4.69
2 | CCc1c(-c2ccccc2)nc2ccccc2c1C(=O)N1CCOCC1 | -2.26
3 | Cc1ccc(OC(C)C(=O)Nc2cccnc2Cl)cc1 (stereo not shown) | 0.331
4 | O=C(O)CCCn1cc(NC(=O)c2cc3ccccc3oc2=O)cn1 | -1.24
5 | Nc1nc(-c2ccc(F)cc2F)cs1 | -2.97
6 | CC1(C)CC(n2c(SCc3ccccc3)nc3ccccc3c2=O)CCO1 (stereo not shown) | -12.7
7 | COc1cc(C2CC(=O)NC3=C2C(=O)CCC3)ccc1OCc1ccccc1 (stereo not shown) | 11.4
8 | CCC1CCc2c(n(C)c3ccccc3c2=O)O1 (stereo not shown) | -6.48
9 | CCOC(=O)c1[nH]c2ccccc2c1NC(=O)/C=C/c1ccc2c(c1)OCO2 | 5.4
10 | Cc1nn(-c2ccccc2)c2c1C(c1cccnc1)C(C#N)=C(N)O2 (stereo not shown) | 0.878
11 | CCc1nc2ccc(C(=O)NCCc3c[nH]cn3)cc2nc1CC | 1.63
12 | CCOc1ccc(NC(=O)c2cnn(-c3ccccc3)c2NC(=O)c2ccccc2F)cc1 | -0.28
13 | COc1ccc(C2(C)SC(NC(C)=O)=NN2C(C)=O)cc1 (stereo not shown) | 0.431
14 | O=C(c1ccc2c(c1)OCO2)N1CCCN(C(=O)c2ccc3c(c2)OCO3)CC1 | 2.17
15 | Cc1ccc(S(=O)(=O)Nc2ccc(-c3cn4ccsc4n3)cc2)cc1 | 1.37
16 | COc1ccc2[nH]cc(CCNCCNCCS)c2c1 | 0.00178
17 | O=C(CSc1nc2ccsc2c(=O)n1CCc1ccc(Cl)cc1)Nc1nccs1 | 4.02
18 | COCCNC(=O)C1=CC(c2ccco2)=NS(=O)(=O)N1C | -4.68
19 | O=C(N[C@@H](Cc1ccccc1)C(=O)O)c1cccnc1 | -2.83
20 | Cc1cc(N2CCN(c3cc(C)nc(C)c3)CC2)cc(C)n1 | -8.28
21 | O=C(Nc1ccc(-c2nc3ccccc3[nH]2)cc1)c1cccs1 | -1.82
22 | Cc1ccccc1-c1nc(CS(=O)(=O)CC(=O)NC(C)CCc2ccccc2)c(C)o1 (stereo not shown) | 1.55
23 | CNC(=O)c1ccc(N2CCN(CCO)CC2)nc1 | -10.2
24 | O=C(Cn1cc(S(=O)(=O)N2CCCC2)c(S(=O)(=O)N2CCCC2)c1)NCc1ccco1 | -3
25 | CC(C)Oc1ccc(Cc2c(O)nc(O)nc2O)cc1 | 5.29

Row | SMILES | % Inhibition @ 10 uM [%]
26 | Cc1ccc(NC(=O)c2cc3c(=O)n4cccc(C)c4nc3n2C)cc1 | -1.42
27 | CCOC(=O)C1C(=O)NCC2CCCC21 (stereo not shown) | -8.85
28 | CCC(=O)Nc1nonc1-c1nc2ccccc2n1C | 2.03
29 | CC(=O)c1c(C)nc(C)nc1NC(=O)C(C)C | 3.25
30 | CC1CCN(C(=O)COc2ccc(Br)cc2)CC1 | 2.45
31 | COc1ccc(Cl)cc1NC(=O)C1CCN(S(=O)(=O)c2c(C)cc(C)cc2C)CC1 | -4.43
32 | CC1=C(C)CC2C(=O)N(c3ccc(C(F)(F)F)cc3)C(=O)C2C1 (stereo not shown) | -2.78
33 | Cc1cccc(C(=O)Nc2ncc(CN3CCOCC3)s2)c1 | 4.08
34 | Cc1[nH]c2ccccc2c1CCNC(=O)COc1c(F)c(F)cc(F)c1F | 2.67
35 | CC(=O)/N=C(\Nc1nc(C)cc(C)n1)Nc1ccc(C)cc1Cl | 3.12
36 | CC(=O)N(C)c1ccc(NC(=O)C(F)(F)F)cc1 | -0.0369
37 | COc1cc(/C=C/c2nc(C#N)c(N3CC(C)OC(C)C3)o2)cc(OC)c1OC (stereo not shown) | -0.808
38 | Cc1nc2c(-c3ccccc3)c(C)nn2c(C)c1CC(=O)N1CCC(C(N)=O)CC1 | -4.24
39 | Cc1nn(Cc2ccccc2)c(C)c1NC(=O)c1ccccc1Br | -7.69
40 | Brc1ccc(Br)c2cnccc12 | 0.279
41 | COc1cccc(-c2nnc(SCC(=O)Nc3cc(=O)n(C)c(=O)n3C)n2C)c1 | -2.19
42 | Cc1coc2c(C)c3oc(=O)c(CCC(=O)N4CCOCC4)c(C)c3cc12 | 4.13
43 | Brc1ccccc1OCCCCCCN1CCOCC1 | 3.35
44 | CCc1nc2ccccc2n1Cc1ccccc1F | 1.12
45 | CC(C)Cc1nn2c(O)cc(=O)nc2s1 | -3.85
46 | Cc1cc(NC(=O)c2ccc3c(c2)c(C)c(C)n3Cc2ccccc2)no1 | 2.95
47 | O=c1nc2n(c(O)c1C(c1ccc(Cl)cc1)c1c(O)nc3n(c1=O)CCCS3)CCCS2 (stereo not shown) | 2.51
48 | COc1ccc(-c2c(C)nn3c(-c4ccc(Cl)cc4)cc(C)nc23)cc1OC | -3.48
49 | CCc1nn(-c2cc(Oc3ccccc3)ncn2)c(N)c1C(N)=O | 0.686
50 | O=C(Nc1ccc(F)cc1)c1cccc2ccccc12 | 4.6

Row | SMILES | % Inhibition @ 10 uM [%]
51 | Cc1ccc(C(=O)N2CCN(c3ncccn3)CC2)cc1 | 3.48
52 | CCCCNC(=O)c1cc2ncc(Br)cn2n1 | -1.72
53 | CC(CCc1ccccc1)NC(=O)CCC(=O)O (stereo not shown) | -0.834
54 | COc1ccc(/C=C2\N=C(c3ccc(F)cc3)OC2=O)c(OC)c1OC | 1.64
55 | Cc1cc(O)c(NC(=O)c2ccccc2C)cc1C | 0.408
56 | CCCCCn1c(C(O)c2ccccc2)nc2ccccc21 (stereo not shown) | -2.92
57 | CCOc1ccc(-c2csc(Nc3ccc(Cl)cc3)n2)cc1[N+](=O)[O-] | -2.42
58 | CC(=O)C1(O)C(C)CC2C3CCC4CC(O)CCC4(C)C3=CCC21C (stereo not shown) | -5.23
59 | Cc1[nH]nc(Nc2ccccc2Br)c1[N+](=O)[O-] | -2.56
60 | COCc1cc(C)nc2sc3c(c12)NC(c1ccc(NC(C)=O)cc1)NC3=O (stereo not shown) | -5.6
61 | N#CCNC(=O)C(NC(=O)c1ccccc1)OCCc1ccccc1 (stereo not shown) | -5.43
62 | Cc1ccc(-c2cc(C(=O)O)c3ccccc3n2)c(C)c1 | -7.06
63 | CC(NC(=O)CCNS(=O)(=O)c1ccc2nc(O)ccc2c1)c1ccc2c(c1)OCCO2 (stereo not shown) | -2.26
64 | O=C(NCCc1ccccc1F)/C(=C/c1cccnc1)NC(=O)c1ccccc1 | 3.79
65 | CNC(=O)C(=O)Nc1ccc2c(c1)OCO2 | -4.3
66 | Cc1ccc(S(=O)(=O)N2CCCCC2)cc1C(=O)O | -5.59
67 | Cn1c(=O)c2c(nc(NCc3cccnc3)n2Cc2cccc(Br)c2)n(C)c1=O | -1.28
68 | Cn1c(=O)c2c(-c3ccccc3Cl)n(C(CO)(CO)CO)cc2n(C)c1=O | 0.366
69 | CC(=O)Nc1cccc(Nc2c3ccccc3nc3ccccc23)c1 | -0.661
70 | CCOc1cccc(C(=O)C2=C(O)C(=O)N(Cc3ccncc3)C2c2cccc(O)c2)c1 (stereo not shown) | 3.57
71 | COc1ccc(C2SCC(=O)N2c2ccccc2)cc1 (stereo not shown) | -3.79
72 | CSc1ccccc1NC(=O)c1ccc(Cn2nc(C)c(Br)c2C)o1 | 2.45
73 | CCCOCCOC(=O)C1=C(C)NC(=O)CC1c1ccccc1C(F)(F)F (stereo not shown) | 3.67
74 | O=C1c2ccccc2CC2c3[nH]c4ccccc4c3CCN12 (stereo not shown) | 3.8
75 | Cc1cc(NC(=O)c2cc3n(n2)C(C(F)(F)F)CC(c2ccco2)N3)n(-c2ccccc2)n1 (stereo not shown) | 2.46

Row | SMILES | % Inhibition @ 10 uM [%]
76 | Cn1c(C(=O)N2CCC(C(=O)NCc3ccccc3Cl)CC2)cc2oc3ccccc3c21 | -7.02
77 | COc1ccc(-c2[nH]nc3c2C(c2cc4c(cc2Br)OCO4)C(C#N)=C(N)O3)cc1 (stereo not shown) | 0.446
78 | COc1cccc(CSc2nc3ccncc3n2CC(=O)NCC2CCCO2)c1 (stereo not shown) | -0.637
79 | COc1cccc(CN2CCC(N3CCC(C)CC3)CC2)c1OC | -1.52
80 | COc1ccc(Cn2nnc3c(O)nc(C4CCN(C(=O)c5cc(C)ccc5C)CC4)nc32)cc1 | 2.73
81 | Cc1cc(C(=O)NC(C)c2ccccc2)no1 (stereo not shown) | -6.45
82 | O=C(Nc1ccc(-c2ccc(NC(=O)c3ccco3)cc2)cc1)c1ccco1 | -1.36
83 | Cc1nc2ccn(Cc3cccs3)c(=O)c2cc1C(=O)NC1CCCC1 | 3.16
84 | O=C(NCc1cccs1)c1nc2ncccn2n1 | -5.65
85 | COc1cc(C)c(CN2CC3(C)CC2CC(C)(C)C3)cc1C (stereo not shown) | -12.1
86 | COc1cccc2sc(N(CCCN(C)C)C(=O)c3cccc(C(F)(F)F)c3)nc12 | -0.808
87 | O=C(O)C1=C(c2cc([N+](=O)[O-])ccc2O)N=S=N1 | 0.215
88 | CCC(C(=O)NCc1ccco1)n1nc(-c2ccc(OC)cc2)ccc1=O (stereo not shown) | -8.34
89 | Cc1oc(-c2ccc(Cl)cc2)nc1CS(=O)CC(=O)NCCCN(C)C1CCCCC1 (stereo not shown) | -4.71
90 | Cc1ccccc1NC(=O)c1c(Cl)c(C)nn1C | -6.34
91 | COc1ccc(C(Nc2cc(C)ccn2)c2ccc3cccnc3c2O)c(OC)c1OC (stereo not shown) | -4.51
92 | CC(C)OCCCNC(=O)c1ccc(CS(=O)Cc2ccc(Cl)cc2)o1 (stereo not shown) | 0.124
93 | C[C@H](C[C@H](NC(=O)c1ccc(-c2ccccc2Cl)cc1)C(=O)N[C@H](/C=C/S(=O)(=O)c1ccccc1)CCc1ccc(O)cc1)c1ccccc1 | -0.207
94 | C=CCOc1c(Br)cc(CNc2nccs2)cc1OC | 0.145
95 | Cc1ccc(Cl)cc1-c1ccc(/C=C2/NC(=O)NC2=O)o1 | 5.17
96 | O=C(N[C@@H](CCc1ccccc1)C(=O)c1nc2ccccc2o1)[C@H](CS(=O)(=O)Cc1ccccc1[N+](=O)[O-])NC(=O)N1CCOCC1 | -5.21
97 | CC(C)OC(=O)C(C)Nc1ccc(F)c(Cl)c1 (stereo not shown) | -1.77
98 | O=C1NC(c2ccccc2)Nc2c1sc(=S)n2-c1ccccc1 (stereo not shown) | 0.0538
99 | O=S(=O)(NCc1ccccc1)c1cccc(S(=O)(=O)c2ccc(Cl)c(Cl)c2)c1 | 6.31
100 | CC1=CC(C)(C)N(CC(=O)c2ccc([N+](=O)[O-])cc2)c2ccc(C)cc21 | -2.51
